Measurements from the supplement of paper PMC8728848.
Some of the results follow.

Legend:
Assay in all cases: glycan array binding signal (z-score within array); higher = stronger binding
Details in all cases: glycan notation: IUPAC condensed, linker removed
[1] = molecular target: Gal(b1-4)GlcNAc(b1-3)Gal(b1-4)GlcNAc(b1-2)[Gal(b1-4)GlcNAc(b1-3)Gal(b1-4)GlcNAc(b1-6)]Man(a1-6)[Gal(b1-4)GlcNAc(b1-3)Gal(b1-4)GlcNAc(b1-2)Man(a1-3)]Man(b1-4)GlcNAc(b1-4)[Fuc(a1-6)]GlcNAc
Outline: (§1)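 The binding signal is a Z-score computed within each array. Data were drawn from 3228 arrays in the Consortium for Functional Glycomics database, restricted to those with a known protein sequence. Scores were averaged over arrays of the same protein sequence at different concentrations or buffers, and over linkers, and negative values can be taken as non-binding.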

[2] = molecular target: Gal(b1-4)GlcNAc(b1-3)Gal(b1-4)GlcNAc(b1-3)Gal(b1-4)GlcNAc
Outline: as §1

[3] = molecular target: Gal(b1-4)GlcNAc(b1-3)Gal(b1-4)GlcNAc(b1-3)Gal(b1-4)GlcNAc(b1-2)Man(a1-3)[Gal(b1-4)GlcNAc(b1-3)Gal(b1-4)GlcNAc(b1-3)Gal(b1-4)GlcNAc(b1-2)Man(a1-6)]Man(b1-4)GlcNAc(b1-4)GlcNAc
Outline: as §1

[4] = molecular target: Gal(b1-4)GlcNAc(b1-3)Gal(b1-4)GlcNAc(b1-3)Gal(b1-4)GlcNAc(b1-2)Man(a1-3)[Gal(b1-4)GlcNAc(b1-3)Gal(b1-4)GlcNAc(b1-3)Gal(b1-4)GlcNAc(b1-2)Man(a1-6)]Man(b1-4)GlcNAc(b1-4)[Fuc(a1-6)]GlcNAc
Outline: as §1

[5] = molecular target: Gal(b1-4)GlcNAc(b1-3)Gal(b1-4)GlcNAc(b1-3)Gal(b1-4)GlcNAc(b1-2)[Gal(b1-4)GlcNAc(b1-3)Gal(b1-4)GlcNAc(b1-3)Gal(b1-4)GlcNAc(b1-6)]Man(a1-6)[Gal(b1-4)GlcNAc(b1-3)Gal(b1-4)GlcNAc(b1-3)Gal(b1-4)GlcNAc(b1-2)Man(a1-3)]Man(b1-4)GlcNAc(b1-4)[Fuc(a1-6)]GlcNAc
Outline: as §1

[6] = molecular target: Gal(b1-4)GlcNAc(b1-3)Gal(b1-4)GlcNAc(b1-3)Gal(b1-4)GlcNAc(b1-3)Gal(b1-4)GlcNAc(b1-2)Man(a1-3)[Gal(b1-4)GlcNAc(b1-3)Gal(b1-4)GlcNAc(b1-3)Gal(b1-4)GlcNAc(b1-3)Gal(b1-4)GlcNAc(b1-2)Man(a1-6)]Man(b1-4)GlcNAc(b1-4)GlcNAc
Outline: as §1

[7] = molecular target: Gal(b1-4)GlcNAc(b1-3)Gal(b1-4)GlcNAc(b1-3)Gal(b1-4)GlcNAc(b1-3)Gal(b1-4)GlcNAc(b1-2)Man(a1-3)[Gal(b1-4)GlcNAc(b1-3)Gal(b1-4)GlcNAc(b1-3)Gal(b1-4)GlcNAc(b1-3)Gal(b1-4)GlcNAc(b1-2)Man(a1-6)]Man(b1-4)GlcNAc(b1-4)[Fuc(a1-6)]GlcNAc
Outline: as §1

[8] = molecular target: Gal(b1-4)GlcNAc(b1-3)Gal(b1-4)GlcNAc(b1-3)Gal(b1-4)GlcNAc(b1-3)Gal(b1-4)GlcNAc(b1-2)[Gal(b1-4)GlcNAc(b1-3)Gal(b1-4)GlcNAc(b1-3)Gal(b1-4)GlcNAc(b1-3)Gal(b1-4)GlcNAc(b1-6)]Man(a1-6)[Gal(b1-4)GlcNAc(b1-3)Gal(b1-4)GlcNAc(b1-3)Gal(b1-4)GlcNAc(b1-3)Gal(b1-4)GlcNAc(b1-2)Man(a1-3)]Man(b1-4)GlcNAc(b1-4)[Fuc(a1-6)]GlcNAc
Outline: as §1

[9] = molecular target: Gal(b1-4)GlcNAc(b1-3)Gal(b1-4)GlcNAc(b1-3)Gal(b1-4)GlcNAc(b1-3)Gal(b1-4)GlcNAc(b1-3)Gal(b1-4)GlcNAc(b1-2)Man(a1-3)[Gal(b1-4)GlcNAc(b1-3)Gal(b1-4)GlcNAc(b1-3)Gal(b1-4)GlcNAc(b1-3)Gal(b1-4)GlcNAc(b1-3)Gal(b1-4)GlcNAc(b1-2)Man(a1-6)]Man(b1-4)GlcNAc(b1-4)GlcNAc
Outline: as §1

[10] = molecular target: Gal(b1-4)GlcNAc(b1-3)Gal(b1-4)GlcNAc(b1-3)Gal(b1-4)GlcNAc(b1-3)Gal(b1-4)GlcNAc(b1-3)Gal(b1-4)GlcNAc(b1-2)Man(a1-3)[Gal(b1-4)GlcNAc(b1-3)Gal(b1-4)GlcNAc(b1-3)Gal(b1-4)GlcNAc(b1-3)Gal(b1-4)GlcNAc(b1-3)Gal(b1-4)GlcNAc(b1-2)Man(a1-6)]Man(b1-4)GlcNAc(b1-4)[Fuc(a1-6)]GlcNAc
Outline: as §1

[11] = molecular target: Gal(b1-4)GlcNAc(b1-3)Gal(b1-4)GlcNAc(b1-3)Gal(b1-4)GlcNAc(b1-3)Gal(b1-4)GlcNAc(b1-3)Gal(b1-4)GlcNAc(b1-2)[Gal(b1-4)GlcNAc(b1-3)Gal(b1-4)GlcNAc(b1-3)Gal(b1-4)GlcNAc(b1-3)Gal(b1-4)GlcNAc(b1-3)Gal(b1-4)GlcNAc(b1-6)]Man(a1-6)[Gal(b1-4)GlcNAc(b1-3)Gal(b1-4)GlcNAc(b1-3)Gal(b1-4)GlcNAc(b1-3)Gal(b1-4)GlcNAc(b1-3)Gal(b1-4)GlcNAc(b1-2)Man(a1-3)]Man(b1-4)GlcNAc(b1-4)[Fuc(a1-6)]GlcNAc
Outline: as §1

[12] = molecular target: Gal(b1-4)GlcNAc(b1-3)Gal(b1-4)GlcNAc(b1-3)Gal(b1-4)GlcNAc(b1-3)Gal(b1-4)GlcNAc(b1-3)Gal(b1-4)GlcNAc(b1-3)Gal(b1-4)GlcNAc(b1-2)Man(a1-3)[Gal(b1-4)GlcNAc(b1-3)Gal(b1-4)GlcNAc(b1-3)Gal(b1-4)GlcNAc(b1-3)Gal(b1-4)GlcNAc(b1-3)Gal(b1-4)GlcNAc(b1-3)Gal(b1-4)GlcNAc(b1-2)Man(a1-6)]Man(b1-4)GlcNAc(b1-4)GlcNAc
Outline: as §1

[13] = molecular target: Gal(b1-4)GlcNAc(b1-3)Gal(b1-4)GlcNAc(b1-3)GalNAc
Outline: as §1

[14] = molecular target: Gal(b1-4)GlcNAc(b1-3)Gal(b1-4)GlcNAc(b1-3)[Gal(b1-4)GlcNAc(b1-3)Gal(b1-4)GlcNAc(b1-6)]GalNAc
Outline: as §1

[15] = molecular target: Gal(b1-4)GlcNAc(b1-3)Gal(b1-4)GlcNAc(b1-6)[Gal(b1-3)]GalNAc
Outline: as §1

[16] = molecular target: Gal(b1-4)GlcNAc(b1-3)Gal(b1-4)[Fuc(a1-3)]GlcNAc(b1-3)Gal(b1-4)[Fuc(a1-3)]GlcNAc
Outline: as §1

[17] = molecular target: Gal(b1-4)GlcNAc(b1-3)GalNAc
Outline: as §1

[18] = molecular target: Gal(b1-4)GlcNAc(b1-3)[Fuc(a1-3)GlcNAc(b1-6)]Gal(b1-4)Glc
Outline: as §1

[19] = molecular target: Gal(b1-4)GlcNAc(b1-3)[Gal(b1-4)GlcNAc(b1-6)]Gal(b1-4)GlcNAc
Outline: as §1

[20] = molecular target: Gal(b1-4)GlcNAc(b1-3)[GlcNAc(b1-6)]Gal(b1-4)GlcNAc
Outline: as §1

[21] = molecular target: Gal(b1-4)GlcNAc(b1-6)Gal(b1-4)GlcNAc
Outline: as §1

[22] = molecular target: Gal(b1-4)GlcNAc(b1-6)GalNAc
Outline: as §1

[23] = molecular target: Gal(b1-4)GlcNAc(b1-6)[Gal(b1-3)]GalNAc
Outline: as §1

[24] = molecular target: Gal(b1-4)GlcNAc(b1-6)[Gal(b1-4)GlcNAc(b1-3)]GalNAc
Outline: as §1

Gal(b1-4)GlcNAc6P = molecular target: Gal(b1-4)GlcNAc6P
Outline: as §1

Gal(b1-6)Gal = molecular target: Gal(b1-6)Gal
Outline: as §1

Gal3S(b1-3)GalNAc = molecular target: Gal3S(b1-3)GalNAc
Outline: as §1

Gal3S(b1-3)GlcNAc = molecular target: Gal3S(b1-3)GlcNAc
Outline: as §1

[25] = molecular target: Gal3S(b1-3)[Fuc(a1-4)]GlcNAc
Outline: as §1

Gal3S(b1-4)Glc = molecular target: Gal3S(b1-4)Glc
Outline: as §1

B1: Pbx2 (Cryptococcus neoformans) (protein)
chain: AVSPLPSSTELVFYSQKRRRRRICSTATGSLSTPDPTRMTSDPYKRVGMRFSSVPRLLITFLSLLLLVSAAPPCVRFADYDSINQMFIDGGPGTKVLLCPNRLYRLSGPIIFTAADQEIATYGYPTGSERAVLRVEGRNTATAIQGDCRRCARVSVKNLVVDGNRKKLGRMRDFQLATGLVVLGGNEGQSIQNSWIKNPRGFTAIHIREGDKLQCSGARVEKNEIGPVGEEYDPEKDGDDPEMSPLGRPLADGVSIACRDSFIRDNTFRDNTDAAIVVYCSPGTLIHANHIFAQSLSAMAGILMVDSTPFNGDYTGTVVRSNIIDAVSRTIRVGIGIGPTVWSDDTETILTGGSVIGNGLKGRYMGYGIAAAGLKQWTIKDNWDEAKHEGRKSARCFDEPVNPDPIGLLYNRPTMEDCTVQSGFADHDFQYLVCIDGLYDKTNPPKHDPAPLAHDPSPTNAQEDNTVQQDGGDSKSKSIEQPREASDIEAEPSVEKMFSTGSEMMDDVLEHSHQRMHEVIDHLSRRIDILGAASAGKGSGDSKISEVLDPAMSSHLEKLQRKIEHLEFSLRSQIETAIQLRSAIQGWDQEMALVTDWEYDILLDVRHKLELSSYPHDQPLDPRLMRGQSYLNNEAVLVDDHSHPSLEGENLRAMSDRARLNANEEA
- glycan array binding signal (z-score) [1]: 0.365
- glycan array binding signal (z-score) [2]: 0.154
- glycan array binding signal (z-score) [3]: 4.44
- glycan array binding signal (z-score) [4]: -0.253
- glycan array binding signal (z-score) [5]: 0.898
- glycan array binding signal (z-score) [6]: -0.286
- glycan array binding signal (z-score) [7]: 0.148
- glycan array binding signal (z-score) [8]: -0.098
- glycan array binding signal (z-score) [9]: -0.569
- glycan array binding signal (z-score) [10]: -0.143
- glycan array binding signal (z-score) [11]: -0.123
- glycan array binding signal (z-score) [12]: 0.8
- glycan array binding signal (z-score) [13]: 1.83
- glycan array binding signal (z-score) [14]: 2.83
- glycan array binding signal (z-score) [15]: 0.543
- glycan array binding signal (z-score) [16]: -0.136
- glycan array binding signal (z-score) [17]: -0.314
- glycan array binding signal (z-score) [18]: -0.271
- glycan array binding signal (z-score) [19]: -0.654
- glycan array binding signal (z-score) [20]: -0.271
- glycan array binding signal (z-score) [21]: -0.058
- glycan array binding signal (z-score) [22]: -0.122
- glycan array binding signal (z-score) [23]: -0.496
- glycan array binding signal (z-score) [24]: 0.112
- glycan array binding signal (z-score) (Gal(b1-4)GlcNAc6P): -0.289
- glycan array binding signal (z-score) (Gal(b1-6)Gal): 0.175
- glycan array binding signal (z-score) (Gal3S(b1-3)GalNAc): -0.213
- glycan array binding signal (z-score) (Gal3S(b1-3)GlcNAc): -0.157
- glycan array binding signal (z-score) [25]: -0.382
- glycan array binding signal (z-score) (Gal3S(b1-4)Glc): -0.251
